The campaign covered roughly 310,000 compounds. About 2,200 (0.71%) showed an effect of 50% or more. The effect is printed as a negative number. Some of the results follow.
biological target: human ether-à-go-go-related gene (hERG) potassium channel (human, UniProt Q12809); experiment: primary screen, population patch clamp on CHO cells stably expressing hERG
Sequence (Q12809 whole entry, looked up): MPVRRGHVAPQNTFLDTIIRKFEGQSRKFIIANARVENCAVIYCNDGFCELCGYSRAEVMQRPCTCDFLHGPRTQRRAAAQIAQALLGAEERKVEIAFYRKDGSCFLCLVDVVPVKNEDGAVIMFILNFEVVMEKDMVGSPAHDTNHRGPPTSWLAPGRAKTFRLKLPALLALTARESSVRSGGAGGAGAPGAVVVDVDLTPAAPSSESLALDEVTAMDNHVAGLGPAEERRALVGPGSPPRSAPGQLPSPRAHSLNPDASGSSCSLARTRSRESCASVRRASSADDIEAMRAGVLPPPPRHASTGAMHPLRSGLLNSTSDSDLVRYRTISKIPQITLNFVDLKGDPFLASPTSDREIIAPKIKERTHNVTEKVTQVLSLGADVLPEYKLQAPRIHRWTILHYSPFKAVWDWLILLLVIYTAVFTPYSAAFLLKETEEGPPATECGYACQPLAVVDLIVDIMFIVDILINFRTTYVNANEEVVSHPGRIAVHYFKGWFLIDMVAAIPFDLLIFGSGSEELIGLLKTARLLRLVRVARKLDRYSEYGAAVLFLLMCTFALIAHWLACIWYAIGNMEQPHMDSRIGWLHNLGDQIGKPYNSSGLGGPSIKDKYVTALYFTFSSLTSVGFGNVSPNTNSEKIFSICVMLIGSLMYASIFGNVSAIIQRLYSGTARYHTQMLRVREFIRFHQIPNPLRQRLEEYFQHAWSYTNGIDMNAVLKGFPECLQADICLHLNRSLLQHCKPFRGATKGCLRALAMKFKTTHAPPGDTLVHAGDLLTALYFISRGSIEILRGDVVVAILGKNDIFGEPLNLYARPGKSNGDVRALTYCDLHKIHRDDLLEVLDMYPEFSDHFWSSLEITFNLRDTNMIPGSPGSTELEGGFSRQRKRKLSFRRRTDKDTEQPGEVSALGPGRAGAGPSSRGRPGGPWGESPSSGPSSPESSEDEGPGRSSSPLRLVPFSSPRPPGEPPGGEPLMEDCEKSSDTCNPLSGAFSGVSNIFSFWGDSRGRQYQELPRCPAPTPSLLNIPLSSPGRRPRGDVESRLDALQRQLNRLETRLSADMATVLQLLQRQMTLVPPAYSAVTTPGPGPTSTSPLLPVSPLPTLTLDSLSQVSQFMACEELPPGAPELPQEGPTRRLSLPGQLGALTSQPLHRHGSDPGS

In order of rising “hERG current change (%, negative = inhibition) at 1uM” value:
1. COc1ccc(CN2CCC(CO)(Cc3ccccc3)CC2)cc1Cn1cccn1  -55.9%
2. Cc1ccccc1N=C/C=C1\N(C)c2ccccc2C1(C)C  -51.2%
3. COc1ccc(-n2nc3c(c2NC(=O)COc2cccc(OC)c2)CS(=O)(=O)C3)cc1  -6.43%
4. O=C(Nc1nc2ccc([N+](=O)[O-])cc2s1)c1ccc(S(=O)(=O)N2CCCc3ccccc32)cc1  -3.19%
5. COc1ccc(OC)c(S(=O)(=O)N2CCCC(C(=O)N3CCCCCC3)C2)c1 (stereo not drawn)  -0.35%
6. COc1ccc(OC(=O)c2ccc3nsnc3c2)cc1  -0.133%
7. N#Cc1c(SCc2ccccc2)nc(N2CCOCC2)c2c1CCCC2  0.23%
8. COC(=O)c1cn(-c2ccccc2)nc1-c1cccnc1  0.491%
9. CNC(=S)SCCOc1ccccc1  1.62%
10. CS(=O)(=O)c1cccc(NC(=O)c2ccc(Cl)c(Cl)c2)c1  1.67%
11. Cc1ccccc1OCCCC(=O)Nc1ccccc1C(F)(F)F  2.3%
12. CCc1ccc(N2CC(C(=O)Nc3cccc(S(=O)(=O)N4CCCC4)c3)CC2=O)cc1 (stereo not drawn)  2.63%
13. C=CCn1c(SCC#N)nc2sc(CC)cc2c1=O  3.56%
14. CCn1c(CC(=O)Nc2ccc(C)c(Cl)c2)nnc1SCCOc1ccc(OC)cc1  3.56%
15. CCCCN(CCCC)C(=O)C[n+]1cccc(/C=N/O)c1.[Cl-]  3.73%
16. CS(=O)(=O)N1CCC(C(=O)Nc2ccccc2)CC1  3.99%
17. O=C(NCCC1=CCCCC1)C1CCN(C(=O)c2ccc(Cl)cc2)CC1  4.87%
18. CCCCc1c(C)nc2c(OC)cccc2c1SCCC(=O)O  5.03%
19. O=C(c1cccc(C(F)(F)F)c1)C1CCCN(C(=O)CN2CCCC2=O)C1 (stereo not drawn)  5.23%
20. Cc1cc(C)c(NC(=O)CSc2nnc(CN3CCOCC3)n2C)c(C)c1  5.37%
21. NC(=O)C1CCN(C(=O)c2cccc(CN3C(=O)c4ccccc4C3=O)c2)CC1  5.73%
22. CCCCOc1nc2ccccc2nc1C(C#N)S(=O)(=O)c1ccccc1 (stereo not drawn)  5.93%
23. COCCCC1CCN(C(=O)C2CCC(=O)N(C3CCCCCC3)C2)CC1 (stereo not drawn)  6.29%
24. COc1cc(OC)c(NC(=O)c2cccc(F)c2)cc1Cl  6.95%
25. COc1ccc(NC(=O)CCCNC(=O)c2ccc(Cl)cc2)c(OC)c1  7.1%
26. O=C(NCCN1CCN(c2ccccc2F)CC1)C1CC(=O)N(C2CCCC2)C1 (stereo not drawn)  7.61%
27. CC(=O)c1ccccc1NC(=O)CN1C(=O)CS/C1=C\c1nc(-c2ccc(C)cc2)cs1  7.86%
28. Br.CCOC(=O)CN1C2=NCCCN2c2ccccc21  7.99%
29. CC1CCN(C(=O)CNC(=O)CNS(=O)(=O)c2ccccc2)CC1  8.22%
30. CCOC(=O)c1cc(-c2ccccc2)n(CCC(=O)O)c1C  8.58%
31. C=CCN(c1ccccc1C(=O)O)S(=O)(=O)/C=C/c1ccccc1  8.66%
32. O=C(OCc1cccc([N+](=O)[O-])c1)c1ccc2ccccc2n1  8.72%
33. CCCc1c(C(=O)N/N=C(\C)c2ccc(O)cc2)nnn1-c1nonc1N  8.78%
34. COc1cccc(N2CCN(c3ncnc4c3[nH]c3ccccc34)CC2C)c1 (stereo not drawn)  9.27%
35. O=[N+]([O-])c1cc([N+](=O)[O-])c(Oc2ccc(F)cc2F)cc1NN1CCCCC1  9.35%
36. Cc1[nH]c2ccc(F)cc2c1CCN(Cc1cccnc1)C(=S)Nc1cccc(F)c1  9.6%
37. CCOc1ccc(NC(=O)COc2ccc3c(c2)CCC3)cc1OC  9.67%
38. C[C@H](NC(=O)c1cc2cc(Cl)ccc2n1C)C(=O)N1CCC(C(=O)O)CC1  9.78%
39. NC(=O)CC1NC(=O)c2ccccc21 (stereo not drawn)  10%
40. NS(=O)(=O)c1ccc(NC(=O)/C=C/c2cccs2)cc1  10.2%
41. COC(=O)C1=C(C)N(c2ccc(Br)cc2)C(=O)/C1=C\c1ccco1  10.3%
42. O=C(/C=C/c1ccc(Cl)c(Cl)c1)Nc1cccnc1  10.5%
43. O=C(c1ccccc1CCc1ccccc1)N1CCCC1  11.7%
44. O=C(CNc1ccccc1)N/N=C/c1ccc2c(c1)OCO2  11.7%
45. Cn1c(NN)nc2sc3c(c2c1=O)CC(C)(C)OC3  12.3%
46. CC(/C=C/C(=O)c1ccc(C)cc1)=C\c1ccccc1  12.5%
47. CCOc1ccccc1C(=O)NC(C(=O)Nc1cccnc1)C(C)C (stereo not drawn)  13.3%
48. Nc1c(Cl)nc(-c2ccccc2)nc1Cl  13.4%
49. COc1cc(OC)c(OC)cc1CN1CCN(Cc2ccco2)CC1.O=C(O)C(=O)O  13.6%
50. Fc1ccc(C2CC(c3cccs3)=NN2C(=S)Nc2ccccc2)cc1 (stereo not drawn)  14%
51. O=C(COC(=O)c1cccnc1Nc1cccc(C(F)(F)F)c1)NCc1ccc2c(c1)OCO2  14.3%
52. COc1ccc(OC)c(C(c2c(O)nc(SC)[nH]c2=O)c2c(O)nc(SC)[nH]c2=O)c1  14.8%
53. CCOC(=O)/C=c1\s/c(=C\c2ccc3cc(OC)ccc3c2)c(=O)n1CC(=O)NCc1ccc2c(c1)OCO2  16.4%
54. CSc1ccc(S(=O)(=O)NCC(=O)OCC(=O)NC2(C#N)CCCCC2)cc1[N+](=O)[O-]  17.3%
55. CCOC(=O)CSc1ncc(OC)c(=O)[nH]1  19.3%
56. O=C(N1CCCCC1)C1(c2ccccc2)CCOCC1  19.8%
57. C=CCOc1ccccc1CNCc1cccnc1.Cl  21.8%

— paper PMC4336329 (PLoS ONE, 2015)
